Assay results taken from paper PMC4336329 (PLoS ONE, 2015).
In all, about 310,000 compounds went through this assay and about 2,200 (0.71%) showed an effect of 50% or more. Effects have a minus sign here. The list shows a part of the results.

Target: human ether-à-go-go-related gene (hERG) potassium channel (human, UniProt Q12809)
Assay: primary screen, population patch clamp on CHO cells stably expressing hERG

Sequence of human ether-à-go-go-related gene (hERG) potassium channel (Q12809 whole entry, looked up): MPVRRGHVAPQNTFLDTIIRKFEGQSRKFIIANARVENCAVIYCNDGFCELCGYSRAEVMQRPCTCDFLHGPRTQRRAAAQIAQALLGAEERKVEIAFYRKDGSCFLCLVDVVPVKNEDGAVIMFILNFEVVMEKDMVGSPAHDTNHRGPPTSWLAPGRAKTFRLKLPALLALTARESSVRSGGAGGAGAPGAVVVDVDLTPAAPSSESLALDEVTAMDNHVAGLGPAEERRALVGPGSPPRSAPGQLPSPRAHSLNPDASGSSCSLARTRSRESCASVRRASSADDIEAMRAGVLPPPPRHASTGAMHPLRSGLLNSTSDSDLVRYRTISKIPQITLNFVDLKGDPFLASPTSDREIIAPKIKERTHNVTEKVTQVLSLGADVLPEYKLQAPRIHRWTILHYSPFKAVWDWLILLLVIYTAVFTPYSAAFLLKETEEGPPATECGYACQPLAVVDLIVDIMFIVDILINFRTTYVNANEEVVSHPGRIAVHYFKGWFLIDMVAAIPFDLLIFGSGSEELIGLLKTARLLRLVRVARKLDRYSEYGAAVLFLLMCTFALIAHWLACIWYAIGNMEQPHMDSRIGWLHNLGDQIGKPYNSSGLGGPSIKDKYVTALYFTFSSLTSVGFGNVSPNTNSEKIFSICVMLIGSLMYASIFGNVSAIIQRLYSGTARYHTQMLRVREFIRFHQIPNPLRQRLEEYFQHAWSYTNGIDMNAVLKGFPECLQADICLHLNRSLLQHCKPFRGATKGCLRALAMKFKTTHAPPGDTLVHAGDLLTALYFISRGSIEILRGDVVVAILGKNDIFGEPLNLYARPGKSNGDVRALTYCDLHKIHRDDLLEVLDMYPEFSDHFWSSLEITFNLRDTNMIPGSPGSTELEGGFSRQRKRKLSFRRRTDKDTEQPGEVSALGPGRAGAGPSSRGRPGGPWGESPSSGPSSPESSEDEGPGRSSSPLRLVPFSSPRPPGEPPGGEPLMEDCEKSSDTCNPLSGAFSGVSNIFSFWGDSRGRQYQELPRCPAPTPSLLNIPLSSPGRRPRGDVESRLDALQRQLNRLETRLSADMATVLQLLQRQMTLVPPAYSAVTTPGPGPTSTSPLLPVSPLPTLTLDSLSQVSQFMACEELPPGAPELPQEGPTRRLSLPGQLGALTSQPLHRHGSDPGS

Structure (SMILES)	hERG current change (%, negative = inhibition) at 1uM [%]
COc1ccc(S(=O)(=O)Nc2nc3n(n2)C(c2ccc(Cl)cc2)CC(=O)N3)cc1 (stereo not drawn)	13.5
CCOc1cccc(OCCOCCOc2ccccc2C(C)=O)c1	2.44
O=C(Cc1ccc(Cl)cc1)Nc1ccc(N2CCN(C(=O)c3ccco3)CC2)c(Cl)c1	14.1
O=C1c2ccccc2C(=O)N1CC(=O)N1c2ccccc2Sc2ccccc21	4.08
OCC[C@@H]1C[C@@H](O)[C@H](O)[C@@]2(CCc3ccccc3CO2)O1	13.8
O=C(NCc1cccnc1)Nc1ccccc1Cl	11.7
c1ccc2[nH]c(CCCCc3nc4ccccc4[nH]3)nc2c1	-0.603
Cc1ccccc1C(=O)NNS(=O)(=O)c1cccc([N+](=O)[O-])c1	19.2
CC(C)c1ccc(NC(=S)N(C)CCc2ccccn2)cc1	7.68
COc1ccc(-c2cc(=O)c3cc(F)ccc3[nH]2)cc1	9.03
COc1cccc(/C=N/NC(=O)CC2C(=O)NN=C2C)c1OC (stereo not drawn)	6.72
CCOc1ccc(C(=O)COC(=O)c2c(-c3ccccc3)noc2C)cc1	7.82
COC(=O)C(O)(c1cn(C)c2ccccc12)C(F)(F)F (stereo not drawn)	13.1
COn1c(=S)[nH]c2ccccc2c1=O	4.54
Cc1occc1C(=O)N1CCC2(CC1)OCCO2	4.11
CCOc1ccc(-c2csc(/C(C#N)=C\c3ccc(O)c([N+](=O)[O-])c3)n2)cc1	16.1
O=C(NC(Cc1c[nH]c2ccccc12)C(=O)NCCCN1CCOCC1)c1cccs1 (stereo not drawn)	-26.8
CC1(C)SCC(C(=O)O)NC1=O (stereo not drawn)	22.8
CCOc1ccccc1NCc1cc(=O)oc2cc(C)ccc12	19.7
COCCn1nnnc1C(c1cc2ccc(C)cc2[nH]c1=O)N(Cc1ccco1)Cc1cccs1 (stereo not drawn)	-6.06
Cc1nc(N2CCN(C(=O)c3ccco3)CC2)c2c3c(sc2n1)CCCC3	-23.2
CCNC(=O)CC1C(=O)N(c2ccc(OC)cc2)C(=O)N1Cc1ccc(OC)cc1 (stereo not drawn)	1.71
CCN(CC)C(=O)C1=C(C)NC(=O)NC1c1c(F)cccc1Cl (stereo not drawn)	3.88

Structure (SMILES)	hERG current change (%, negative = inhibition) at 1uM [%]
Cc1onc(-c2ccccc2)c1NC(=O)N(CCC(=O)O)Cc1ccccc1	-1.54
Cc1cccc(-n2ncc3c(NC4CCCCC4)ncnc32)c1	-1.9
Cc1ccc(C2NC(c3ccc(C)cc3)C(C)C(=NO)C2C)cc1 (stereo not drawn)	8.07
COC(=O)N/N=C/c1ccc(/C=N/NC(=O)OC)cc1	7.63
COc1ccc(C(=O)c2sc(Nc3ccccc3F)nc2N)cc1	13.1
CC1CCCCN1S(=O)(=O)c1ccc2c(c1)CCN2C(=O)C1CC1 (stereo not drawn)	7.44
COc1ccc(C)cc1S(=O)(=O)n1ccnc1C	6.75
CC(=O)n1nc(-c2ccccc2)nc1NCc1cccs1	7.45
CCOC(=O)c1c(NC(=O)/C=C/c2ccc3c(c2)OCO3)sc(C)c1CC	18.6
NNC(=O)c1sccc1OCc1ccc(Cl)cc1Cl	6.27
CSc1ccc(CNc2cccc3ccccc23)cc1	11.8
CC(C)(C)C(=O)N1CCC(O)(CS(=O)(=O)Cc2ccc(Cl)cc2)CC1	-0.555
CCOc1ccccc1/C=c1\sc2nc(-c3ccco3)nn2c1=O	11.3
Cc1ccc(OCC(=O)NNC(=O)Cc2ccc(S(=O)(=O)N3CCOCC3)s2)cc1	17
Cc1nn(CC(=O)Nc2ccc(Cl)c(S(=O)(=O)N(C)C)c2)c(C)c1[N+](=O)[O-]	-2.98
COc1ccc(C(=O)Nc2c(C(C)(C)C)nn(C)c2C(C)(C)C)cc1	4.78
Cn1nc(C(=O)NCc2cccc(Cl)c2)c2c1-c1ccccc1S(=O)(=O)C2	11.2
Cc1c2cnn(CC(=O)N3CCC4(CC3)OCCO4)c(=O)c2c(C)n1Cc1cccc(Cl)c1	-0.167
CN(C)CCNC(=O)CN1C(=O)CSc2ccc(S(=O)(=O)N3CCCCC3)cc21	19
CC(=O)N1N=C(c2c(O)n(C)c(=O)n(C)c2=O)CC1c1ccccc1 (stereo not drawn)	10.3
COc1ccc(C2(CNC(=O)c3ccc(OCC(C)C)cc3)CCOCC2)cc1	3.46
Cc1ccc(N(CC(=O)NCc2ccc(F)cc2)C(=O)c2ccco2)cc1C	-4.53
O=C(Oc1cc(=O)oc2ccccc12)c1ccco1	10.4

Structure (SMILES)	hERG current change (%, negative = inhibition) at 1uM [%]
CCC(=O)Nc1cccc(-n2nnnc2SCC(=O)c2ccc(C)c(C)c2)c1	11.3
Cc1ccc(NC(=O)CN2C(=O)COc3ccc(S(=O)(=O)N4CCOCC4)cc32)cc1F	18
COc1ccc(OC)c(S(=O)(=O)NCc2ccccn2)c1	14.4
Cc1noc(C)c1S(=O)(=O)N(CC(=O)NC1CCC(C)CC1)c1ccc(C(C)C)cc1 (stereo not drawn)	18
O=C(Nc1ccc(N2CCOCC2)c(Cl)c1)c1cc2ccccc2o1	-2.3
Cc1ccc(C(C)NC(=O)C2CCCC2)c(C)c1 (stereo not drawn)	-0.786
COc1ccc(C(C)=O)cc1CSc1nc2ccccc2c(=O)n1-c1ccccc1	2.13
CC(=O)Nc1ccc(S(=O)(=O)NC(C)CCc2ccccc2)cc1 (stereo not drawn)	18.3
O=C(O)c1cccc(S(=O)(=O)N(Cc2ccccc2)c2ccccc2)c1	13.8
CCC/C=N/NC(=O)c1cc(-c2ccccc2)nc2ccccc12	8.58
O=C(Nc1ccccc1Br)c1ccccc1-c1ccccc1	11
Cc1nn(C)c(C)c1/C=C1/SC(=S)NC1=O	14.9
COc1ccc(C(=O)CN2C(=O)c3ccccc3S2(=O)=O)cc1Br	12.5
CCCCC1=CC2=C(c3ccco3)C(=O)C(C)(OC(=O)c3ccc(OC)cc3)C(=O)C2=CN1CCc1ccccn1 (stereo not drawn)	12.1
CC1(C)CC(NC(=O)C2CCN(S(=O)(=O)c3cccc(C(F)(F)F)c3)CC2)CC(C)(C)N1	4.93
CCN(CC)CCOC(=O)c1ccc(N)cc1.Cl	12.2
CCOCCCNC(=O)CCNS(=O)(=O)c1ccc(C)cc1	11.3
COc1cc(N=c2ssnc2Cl)c(OC)cc1Cl	12.6
C=CCc1ccc(OCCCOc2ccc(C(=O)O)cc2)c(OC)c1	8.51
CCOC(=O)c1oc2ccccc2c1CSc1nnnn1-c1ccc(OC)cc1	7.3
O=C1c2[nH]nc(-c3ccccc3O)c2C(c2ccc(F)cc2)N1Cc1ccco1 (stereo not drawn)	13.1
CCCCC(=O)Nc1ccc(N2CCN(c3ccc(F)cc3)CC2)cc1	2.95
Cn1c(CNc2ccc(O)cc2)nc2ccccc21	4.66

Structure (SMILES)	hERG current change (%, negative = inhibition) at 1uM [%]
CN(c1ccc(OCC(=O)Nc2nc3ccccc3s2)cc1)S(=O)(=O)c1ccccc1	18.2
CCC(C)NCC(=O)Nc1ccc([N+](=O)[O-])cc1C(=O)Nc1ccccc1F (stereo not drawn)	6.92
CN(c1ccc(C(=O)Nc2ccccc2C(F)(F)F)cc1)S(C)(=O)=O	8.09
COc1cccc(C(=O)Oc2ccc3c(C)cc(=O)oc3c2C(C)=O)c1	8.21
CCOC(=O)C1CCCn2c1nc1sc3c(c1c2=O)CCCC3 (stereo not drawn)	0.766
O=C(CSc1oc(-c2ccc(F)cc2)nc1S(=O)(=O)c1ccccc1)NCC1CCCO1 (stereo not drawn)	2.06
Cn1c(-c2ccc(N)cc2)nc2ccccc21	5.46
CC(C)C1=NN(C(=O)c2ccccc2)C(O)(C(C)(C)C)C1 (stereo not drawn)	10.4
O=C(Cc1ccccc1)NCC1COc2ccccc2O1 (stereo not drawn)	9.09
CNC(=O)c1cc(S(=O)(=O)Nc2ccc(C)cc2C)ccc1C	14.9
CC(C)Nc1nc(Cl)nc(NC2CCCCC2)n1	15.1
Cc1cc(NC(=O)COC(=O)c2oc3c(ccc4ccccc43)c2C)no1	11.8
Clc1ccc(-c2nnc(-c3ccccc3)nc2N2CCSCC2)cc1	10.4
O=C(COC(=O)Cc1ccccc1F)Nc1ccccc1[N+](=O)[O-]	-0.101
CC(C)c1onc(C(=O)N2CCCCC2C)c1[N+](=O)[O-] (stereo not drawn)	8.23
Cc1ccoc1C(=O)Nc1cccc(Oc2ccccc2)c1	9.45
O=C(NC(=S)Nc1ccc(Cc2ccncc2)cc1)c1ccccc1F	1.48
Cc1ccc(-c2nc(CSc3nc4ccccc4c(=O)n3CCO)cs2)cc1	21.4
CC12CN3CC(C)(CN(C1)P3(=O)Oc1ccccc1)C2=O (stereo not drawn)	9.38
CCOC(=O)n1c(=O)n(Cc2ccc(Cl)c(Cl)c2)c2ccccc21	9.25
CN(CCc1ccccn1)C(=O)CC1C(=O)NCCN1Cc1cccc(F)c1 (stereo not drawn)	10.9
